Inconclusive means that the source gave no clear call. Such entries were picked first, then a sample of the others. No potency is given beside an inconclusive call; the fits are too rough. Calls of active or inactive are those of the source. Calls come from the whole dose curve; as a rule, active = well fitted inhibition curve with a large enough effect; inconclusive = small, poorly fitted or top-dose-only effect; inactive = no such curve, though single readings can be large or run the other way.
Target: Cytochrome P450 3A7 (Homo sapiens) (UniProt P24462)
Test: Cytochrome P450 family 3 subfamily A member 7 (CYP3A7) small molecule antagonists: luciferase biochemical qHTS assay (AID 1963596); note: nearly all actives have a fitted effect of over 40% in size
Details: P450-Glo CYP3A7 enzyme luminescence, 1 h; series mostly up to 57.4 µM
How it was run: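 Recombinant CYP3A7 P450-Glo luminescent assay: enzyme-proluciferin substrate mix preincubated with compound 10 min at room temperature, reaction started with NADPH regeneration system for 1 h. Luciferin detected by luminescence; ketoconazole as positive control.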
% is set by controls: 0 for no effect and ±100 for the full control effect; potency is the fitted concentration of half-maximal effect; tags give direction and shape of the fitted curve.

Chain of UniProt P24462 (P24462 whole entry, looked up): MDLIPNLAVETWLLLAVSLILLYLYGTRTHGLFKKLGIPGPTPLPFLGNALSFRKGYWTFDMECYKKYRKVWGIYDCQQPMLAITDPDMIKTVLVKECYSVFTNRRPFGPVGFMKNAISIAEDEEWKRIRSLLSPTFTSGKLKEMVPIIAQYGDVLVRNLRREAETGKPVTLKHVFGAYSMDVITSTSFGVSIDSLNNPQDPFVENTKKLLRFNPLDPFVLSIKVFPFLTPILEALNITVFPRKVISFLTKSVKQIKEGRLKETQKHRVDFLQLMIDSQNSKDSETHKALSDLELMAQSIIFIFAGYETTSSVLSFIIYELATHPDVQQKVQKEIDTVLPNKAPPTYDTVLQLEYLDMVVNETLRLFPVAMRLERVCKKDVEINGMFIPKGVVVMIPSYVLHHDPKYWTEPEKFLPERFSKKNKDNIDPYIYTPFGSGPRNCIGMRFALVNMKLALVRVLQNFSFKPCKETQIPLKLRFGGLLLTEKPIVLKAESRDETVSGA

Structure (SMILES)	Potency	activity change, negative = inhibition
COc1ccc(NC(=O)CSc2nc(-c3cccs3)cc(C(F)(F)F)n2)cc1OC	inactive	–
CC1=C(C(=O)Nc2nnc(C)s2)C(c2ccccc2Cl)N=C(Nc2nc3ccccc3o2)N1 (stereo unspecified)	inconclusive [inhibitor, partial curve]	–
Cc1ccc(Nc2nc3ccccc3c3nnc(C)n23)c(C)c1	inconclusive [inhibitor, partial curve, poor fit]	–
O=C(O)Cc1cccc(-c2cc(CCCCCCc3ccc(O[C@H]4O[C@H](CO)[C@@H](O)[C@H](O)[C@@H]4O)c(-c4cccc(CC(=O)O)c4)c3)ccc2O[C@H]2O[C@H](CO)[C@@H](O)[C@H](O)[C@@H]2O)c1	–	inactive: -19.9% [at 0.91 µM]
CC(C)c1ccc(NC(=O)c2cccs2)c(-c2nc3ccccc3[nH]c2=O)c1	inconclusive [inhibitor, partial curve]	–
CCc1ccc(CNC(=O)C2CCCN(c3nnc(C)c4c(C)n(-c5ccccc5)nc34)C2)cc1 (stereo unspecified)	active: 2.82 µM	–
Nc1nc(N)c(-c2ccccc2)s1	inconclusive [inhibitor, partial curve, poor fit]	–
COc1ccc(C(=O)Nc2nc3ccccc3n2CCOc2ccc(Cl)cc2)cc1	inconclusive [inhibitor, single point]	–
O=C(Nc1ccc(Cl)cc1F)c1ccccc1O	inconclusive [inhibitor, partial curve]	–
C=Cc1ccccc1	inactive	–
CC(NC(=O)C(O)C(C)C)C(=O)NC1C(=O)N(C)CCc2ccccc21 (stereo unspecified)	inactive	–

Source: PubChem BioAssay (NCATS)
